{"source": "the supplement of paper PMC8728848", "assay_in_all_cases": "glycan array binding signal (z-score within array); higher = stronger binding", "conditions_in_all_cases": "glycan notation: IUPAC condensed, linker removed", "key": {"[1]": {"target": "Neu5Ac(a2-6)Gal(b1-3)GlcNAc(b1-3)[Gal(b1-4)GlcNAc(b1-6)]Gal(b1-4)Glc", "outline": "(§1)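 The binding signal is a Z-score computed within each array. Data were drawn from 3228 arrays in the Consortium for Functional Glycomics database, restricted to those with a known protein sequence. Scores were averaged over arrays of the same protein sequence at different concentrations or buffers, and over linkers, and negative values can be taken as non-binding.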"}, "Neu5Ac(a2-6)Gal(b1-4)Glc": {"target": "Neu5Ac(a2-6)Gal(b1-4)Glc", "outline": "as §1"}, "[2]": {"target": "Neu5Ac(a2-6)Gal(b1-4)GlcNAc", "outline": "as §1"}, "[3]": {"target": "Neu5Ac(a2-6)Gal(b1-4)GlcNAc(b1-2)Man", "outline": "as §1"}, "[4]": {"target": "Neu5Ac(a2-6)Gal(b1-4)GlcNAc(b1-2)Man(a1-3)Man(b1-4)GlcNAc(b1-4)GlcNAc", "outline": "as §1"}, "[5]": {"target": "Neu5Ac(a2-6)Gal(b1-4)GlcNAc(b1-2)Man(a1-3)[Gal(b1-4)GlcNAc(b1-2)Man(a1-6)]Man(b1-4)GlcNAc(b1-4)GlcNAc", "outline": "as §1"}, "[6]": {"target": "Neu5Ac(a2-6)Gal(b1-4)GlcNAc(b1-2)Man(a1-3)[GlcNAc(b1-2)Man(a1-6)]Man(b1-4)GlcNAc(b1-4)GlcNAc", "outline": "as §1"}, "[7]": {"target": "Neu5Ac(a2-6)Gal(b1-4)GlcNAc(b1-2)Man(a1-3)[GlcNAc(b1-4)][Neu5Ac(a2-6)Gal(b1-4)GlcNAc(b1-2)Man(a1-6)]Man(b1-4)GlcNAc(b1-4)GlcNAc", "outline": "as §1"}, "[8]": {"target": "Neu5Ac(a2-6)Gal(b1-4)GlcNAc(b1-2)Man(a1-3)[Man(a1-6)]Man(b1-4)GlcNAc(b1-4)GlcNAc", "outline": "as §1"}, "[9]": {"target": "Neu5Ac(a2-6)Gal(b1-4)GlcNAc(b1-2)Man(a1-3)[Neu5Ac(a2-3)Gal(b1-4)GlcNAc(b1-2)Man(a1-6)]Man(b1-4)GlcNAc(b1-4)GlcNAc", "outline": "as §1"}, "[10]": {"target": "Neu5Ac(a2-6)Gal(b1-4)GlcNAc(b1-2)Man(a1-3)[Neu5Ac(a2-6)Gal(b1-4)GlcNAc(b1-2)Man(a1-6)]Man(b1-4)GlcNAc(b1-4)GlcNAc", "outline": "as §1"}, "[11]": {"target": "Neu5Ac(a2-6)Gal(b1-4)GlcNAc(b1-2)Man(a1-3)[Neu5Ac(a2-6)Gal(b1-4)GlcNAc(b1-2)Man(a1-6)]Man(b1-4)GlcNAc(b1-4)[Fuc(a1-6)]GlcNAc", "outline": "as §1"}, "[12]": {"target": "Neu5Ac(a2-6)Gal(b1-4)GlcNAc(b1-2)Man(a1-6)Man(b1-4)GlcNAc(b1-4)GlcNAc", "outline": "as §1"}, "[13]": {"target": "Neu5Ac(a2-6)Gal(b1-4)GlcNAc(b1-2)Man(a1-6)[Gal(b1-4)GlcNAc(b1-2)Man(a1-3)]Man(b1-4)GlcNAc(b1-4)GlcNAc", "outline": "as §1"}, "[14]": {"target": "Neu5Ac(a2-6)Gal(b1-4)GlcNAc(b1-2)Man(a1-6)[GlcNAc(b1-2)Man(a1-3)]Man(b1-4)GlcNAc(b1-4)GlcNAc", "outline": "as §1"}, "[15]": {"target": "Neu5Ac(a2-6)Gal(b1-4)GlcNAc(b1-2)Man(a1-6)[Man(a1-3)]Man(b1-4)GlcNAc(b1-4)GlcNAc", "outline": "as §1"}, "[16]": {"target": "Neu5Ac(a2-6)Gal(b1-4)GlcNAc(b1-2)[Neu5Ac(a2-6)Gal(b1-4)GlcNAc(b1-4)]Man(a1-3)[GlcNAc(b1-4)][Neu5Ac(a2-6)Gal(b1-4)GlcNAc(b1-2)[Neu5Ac(a2-6)Gal(b1-4)GlcNAc(b1-6)]Man(a1-6)]Man(b1-4)GlcNAc(b1-4)GlcNAc", "outline": "as §1"}, "[17]": {"target": "Neu5Ac(a2-6)Gal(b1-4)GlcNAc(b1-2)[Neu5Ac(a2-6)Gal(b1-4)GlcNAc(b1-4)]Man(a1-3)[GlcNAc(b1-4)][Neu5Ac(a2-6)Gal(b1-4)GlcNAc(b1-4)Man(a1-6)]Man(b1-4)GlcNAc(b1-4)GlcNAc", "outline": "as §1"}, "[18]": {"target": "Neu5Ac(a2-6)Gal(b1-4)GlcNAc(b1-2)[Neu5Ac(a2-6)Gal(b1-4)GlcNAc(b1-6)]Man(a1-6)[Neu5Ac(a2-6)Gal(b1-4)GlcNAc(b1-2)Man(a1-3)][GlcNAc(b1-4)]Man(b1-4)GlcNAc(b1-4)GlcNAc", "outline": "as §1"}, "[19]": {"target": "Neu5Ac(a2-6)Gal(b1-4)GlcNAc(b1-3)Gal(b1-3)GlcNAc", "outline": "as §1"}, "[20]": {"target": "Neu5Ac(a2-6)Gal(b1-4)GlcNAc(b1-3)Gal(b1-4)GlcNAc", "outline": "as §1"}, "[21]": {"target": "Neu5Ac(a2-6)Gal(b1-4)GlcNAc(b1-3)Gal(b1-4)GlcNAc(b1-2)Man(a1-3)[Neu5Ac(a2-6)Gal(b1-4)GlcNAc(b1-3)Gal(b1-4)GlcNAc(b1-2)Man(a1-6)]GalNAc", "outline": "as §1"}, "[22]": {"target": "Neu5Ac(a2-6)Gal(b1-4)GlcNAc(b1-3)Gal(b1-4)GlcNAc(b1-3)Gal(b1-4)GlcNAc", "outline": "as §1"}, "[23]": {"target": "Neu5Ac(a2-6)Gal(b1-4)GlcNAc(b1-3)Gal(b1-4)GlcNAc(b1-3)Gal(b1-4)GlcNAc(b1-2)Man(a1-3)[Neu5Ac(a2-6)Gal(b1-4)GlcNAc(b1-3)Gal(b1-4)GlcNAc(b1-3)Gal(b1-4)GlcNAc(b1-2)Man(a1-6)]GalNAc", "outline": "as §1"}, "[24]": {"target": "Neu5Ac(a2-6)Gal(b1-4)GlcNAc(b1-3)Gal(b1-4)GlcNAc(b1-3)GalNAc", "outline": "as §1"}, "[25]": {"target": "Neu5Ac(a2-6)Gal(b1-4)GlcNAc(b1-3)Gal(b1-4)GlcNAc(b1-3)[Neu5Ac(a2-6)Gal(b1-4)GlcNAc(b1-3)Gal(b1-4)GlcNAc(b1-6)]GalNAc", "outline": "as §1"}, "[26]": {"target": "Neu5Ac(a2-6)Gal(b1-4)GlcNAc(b1-3)Gal(b1-4)GlcNAc(b1-6)[Gal(b1-3)]GalNAc", "outline": "as §1"}, "[27]": {"target": "Neu5Ac(a2-6)Gal(b1-4)GlcNAc(b1-3)Gal(b1-4)[Fuc(a1-3)]GlcNAc(b1-3)Gal(b1-4)[Fuc(a1-3)]GlcNAc", "outline": "as §1"}, "[28]": {"target": "Neu5Ac(a2-6)Gal(b1-4)GlcNAc(b1-3)GalNAc", "outline": "as §1"}, "[29]": {"target": "Neu5Ac(a2-6)Gal(b1-4)GlcNAc(b1-3)[Neu5Ac(a2-6)Gal(b1-4)GlcNAc(b1-6)]GalNAc", "outline": "as §1"}, "[30]": {"target": "Neu5Ac(a2-6)Gal(b1-4)GlcNAc(b1-6)GalNAc", "outline": "as §1"}, "[31]": {"target": "Neu5Ac(a2-6)Gal(b1-4)GlcNAc(b1-6)[Gal(b1-3)GlcNAc(b1-3)]Gal(b1-4)Glc", "outline": "as §1"}, "[32]": {"target": "Neu5Ac(a2-6)Gal(b1-4)GlcNAc(b1-6)[Gal(b1-3)]GalNAc", "outline": "as §1"}, "[33]": {"target": "Neu5Ac(a2-6)Gal(b1-4)GlcNAc6S", "outline": "as §1"}, "Neu5Ac(a2-6)GalNAc": {"target": "Neu5Ac(a2-6)GalNAc", "outline": "as §1"}, "[34]": {"target": "Neu5Ac(a2-6)GalNAc(b1-4)GlcNAc", "outline": "as §1"}, "[35]": {"target": "Neu5Ac(a2-6)GalNAc(b1-4)GlcNAc6S", "outline": "as §1"}, "[36]": {"target": "Neu5Ac(a2-6)GlcNAc(b1-4)GlcNAc", "outline": "as §1"}}, "note": "Some of the results follow."}
{"binder": "PX9937D-bvu-500-26-500 (Bacteroides vulgatus) (protein) DPVSDITDLNYWKTPEQFDSFVFGLHSRFRSHSWNMFLLGEARSDVFGGIPFGGEATQGMERFPYNTLNAENPGISGFGDLYQNINQMNLFISRTLHTDVLTESARNYYLGQVYGLRAYYMYQLYRSWGDVVFTEEPSLGFEVGKLAKAATPAAEIFEQVKKDIESSLSYFGSDYTIKEKKSLWSKAATLMLKADVYLWSAHRDGGEGDARTAKNALVDIQNNISRSNLDLMDTYQGVFAYDNKGNKEIIFTIHNELFEYNLWNGNNDLFPQADYLGKFYNADGTLINTSVENNFGIMRLMVKLENFKKFLPGDTRRDVTLKDVYNKVENGKLELVGVYPHKYWGVMNGSTRVRCDDYPIYRYSDLLLMLAEAKVLLGEDPATEINRVRRRAFGDAYDASTVGFPNQEVDKRPADAVLQERLFEFMLEGKRWYDLRRFGDSYVLDYTPAEPARLLWPINQGALTNNPLLKQTVGY", "values": [{"measurement": "glycan array binding signal (z-score)", "setting": "[1]", "result": 0.077}, {"measurement": "glycan array binding signal (z-score)", "setting": "Neu5Ac(a2-6)Gal(b1-4)Glc", "result": -0.37}, {"measurement": "glycan array binding signal (z-score)", "setting": "[2]", "result": -0.235}, {"measurement": "glycan array binding signal (z-score)", "setting": "[3]", "result": -0.072}, {"measurement": "glycan array binding signal (z-score)", "setting": "[4]", "result": -0.341}, {"measurement": "glycan array binding signal (z-score)", "setting": "[5]", "result": -0.298}, {"measurement": "glycan array binding signal (z-score)", "setting": "[6]", "result": -0.121}, {"measurement": "glycan array binding signal (z-score)", "setting": "[7]", "result": -0.405}, {"measurement": "glycan array binding signal (z-score)", "setting": "[8]", "result": 1.14}, {"measurement": "glycan array binding signal (z-score)", "setting": "[9]", "result": -0.701}, {"measurement": "glycan array binding signal (z-score)", "setting": "[10]", "result": -0.307}, {"measurement": "glycan array binding signal (z-score)", "setting": "[11]", "result": -0.318}, {"measurement": "glycan array binding signal (z-score)", "setting": "[12]", "result": -0.093}, {"measurement": "glycan array binding signal (z-score)", "setting": "[13]", "result": -0.559}, {"measurement": "glycan array binding signal (z-score)", "setting": "[14]", "result": -0.3}, {"measurement": "glycan array binding signal (z-score)", "setting": "[15]", "result": -0.46}, {"measurement": "glycan array binding signal (z-score)", "setting": "[16]", "result": -0.102}, {"measurement": "glycan array binding signal (z-score)", "setting": "[17]", "result": -0.426}, {"measurement": "glycan array binding signal (z-score)", "setting": "[18]", "result": 0.914}, {"measurement": "glycan array binding signal (z-score)", "setting": "[19]", "result": -0.424}, {"measurement": "glycan array binding signal (z-score)", "setting": "[20]", "result": -0.037}, {"measurement": "glycan array binding signal (z-score)", "setting": "[21]", "result": 4.23}, {"measurement": "glycan array binding signal (z-score)", "setting": "[22]", "result": -0.273}, {"measurement": "glycan array binding signal (z-score)", "setting": "[23]", "result": 0.395}, {"measurement": "glycan array binding signal (z-score)", "setting": "[24]", "result": -0.414}, {"measurement": "glycan array binding signal (z-score)", "setting": "[25]", "result": 0.005}, {"measurement": "glycan array binding signal (z-score)", "setting": "[26]", "result": 0.256}, {"measurement": "glycan array binding signal (z-score)", "setting": "[27]", "result": 0.021}, {"measurement": "glycan array binding signal (z-score)", "setting": "[28]", "result": 1.81}, {"measurement": "glycan array binding signal (z-score)", "setting": "[29]", "result": -0.473}, {"measurement": "glycan array binding signal (z-score)", "setting": "[30]", "result": -0.488}, {"measurement": "glycan array binding signal (z-score)", "setting": "[31]", "result": -0.417}, {"measurement": "glycan array binding signal (z-score)", "setting": "[32]", "result": -0.138}, {"measurement": "glycan array binding signal (z-score)", "setting": "[33]", "result": 0.18}, {"measurement": "glycan array binding signal (z-score)", "setting": "Neu5Ac(a2-6)GalNAc", "result": -0.272}, {"measurement": "glycan array binding signal (z-score)", "setting": "[34]", "result": -0.453}, {"measurement": "glycan array binding signal (z-score)", "setting": "[35]", "result": -0.324}, {"measurement": "glycan array binding signal (z-score)", "setting": "[36]", "result": -0.483}]}
